Results reported in PubChem BioAssay (NCATS).
The inconclusive results got no clear call from the source; some entries with a clear call stand among them for comparison. Potencies of inconclusive entries are doubtful fits and often do not repeat. Active and inactive are the calls of the source. Calls follow the shape of the dose curve; as a rule, active = well fitted inhibition curve with a large enough effect; inconclusive = small, poorly fitted or top-dose-only effect; inactive = flat fitted curve, though single readings scatter.

Test system: HEK293
Assay: Cytotoxic Profiling of Annotated Libraries Using Quantitative High-Throughput Screening (AID 1296008); also: nearly all actives have a fitted effect of over 60% in size
Conditions: Five cell lines viability, CellTiter-Glo ATP luminescence, 48-72 h; max response: hits give low values
Method in brief: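 Cells exposed to compounds for 48 or 72 hr at 37 degrees Celsius. Viability read as ATP-coupled luminescence with CellTiter-Glo after 10 min at room temperature.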
% is scaled to controls: 0 for no effect and ±100 for the full control effect; potency is read from the fitted curve at half-maximal effect; tags tell the direction and shape of the fitted curve.

Row | SMILES | Potency | max response | outcome
1 | CC(=O)O[C@H]1CC[C@H]2[C@@H]3CC[C@H]4CC(=O)C=C(C)[C@]4(C)[C@H]3CC[C@]12C | active: 23.1 µM |  | 
2 | N[C@@H]1C[C@H]1c1ccccc1 |  | inactive: -4.85% | 
3 | CC(Cc1ccccc1)NCCn1cnc2c1c(=O)n(C)c(=O)n2C (stereo not drawn) | inconclusive: 34 µM [inhibitor, single point] |  | 
4 | O=[N+]([O-])c1cc([As](=O)(O)O)ccc1O |  |  | inactive
5 | CC/C=C/C=C/C1(C)OC(OC)=C(C(=O)C2C(C)C(=O)c3cc(OC)c(O)c(O)c3C2(C)O)C1=O (stereo not drawn) | inconclusive: 15.9 µM [inhibitor, single point] |  | 
6 | CCC(C)C1NC(=O)C(C(C)=O)=C1O (stereo not drawn) | inconclusive: 47.3 µM [inhibitor, single point] |  | 
7 | CC(=O)C1CCC2C3CCC4C[C@@H](O)CCC4(C)C3CCC12C (stereo partly drawn) | inconclusive: 29.1 µM [inhibitor, single point] |  | 
8 | O=C(CCCN1CCC2(CC1)C(=O)NCN2c1ccccc1)c1ccc(F)cc1 | inconclusive: 29.9 µM [inhibitor, single point] |  | 
